Measurements published in PubChem BioAssay AID1478 (National Center for Advancing Translational Sciences (NCATS), 2009).
Hit rate of the full screen: of about 200,000 compounds, about 860 (0.43%) were called active. The inconclusive results got no clear call from the source; some entries with a clear call stand among them for comparison. Calls come from the whole dose curve; as a rule, active = well fitted inhibition curve with a large enough effect; inconclusive = small, poorly fitted or top-dose-only effect; inactive = flat fitted curve, though single readings scatter. Potencies beside an inconclusive call are fits to weak or partial responses and may not hold up. More than one record can exist for a structure, and the calls need not agree.
Note: nearly all actives have a fitted effect of over 40% in size.
Potency is the fitted concentration of half-maximal effect; tags give direction and shape of the fitted curve.

Each compound was assayed against Cruzipain (Trypanosoma cruzi) (UniProt P25779) (assay: qHTS Assay for Promiscuous and Specific Inhibitors of Cruzain (with detergent)). Conditions: purified cruzain, Z-FR-AMC fluorescence, 0.01% Triton.
UniProt P25779, sequence (P25779 whole entry, looked up): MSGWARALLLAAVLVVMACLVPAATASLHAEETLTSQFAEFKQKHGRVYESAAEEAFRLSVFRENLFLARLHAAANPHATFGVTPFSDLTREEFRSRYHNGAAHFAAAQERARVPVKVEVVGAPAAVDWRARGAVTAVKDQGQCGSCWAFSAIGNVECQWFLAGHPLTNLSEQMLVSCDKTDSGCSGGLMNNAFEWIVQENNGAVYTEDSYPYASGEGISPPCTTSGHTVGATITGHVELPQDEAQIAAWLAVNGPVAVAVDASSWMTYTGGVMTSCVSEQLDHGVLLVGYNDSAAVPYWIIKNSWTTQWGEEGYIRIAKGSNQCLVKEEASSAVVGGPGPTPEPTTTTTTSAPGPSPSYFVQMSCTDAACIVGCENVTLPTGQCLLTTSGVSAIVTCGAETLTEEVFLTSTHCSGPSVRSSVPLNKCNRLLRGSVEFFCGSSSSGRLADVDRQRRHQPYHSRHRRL
Description: Cruzain (3.4.22.51) is a cysteine protease from the tropical parasite Trypanosoma cruzi. Dual qHTS experiment was performed against the NCGC compound collection in order to 1) identify novel inhibitors of the enzyme and 2) profile the compound collection for promiscuous inhibitors operating via colloidal aggregation (by performing detergent-free and detergent-containing comparison screens). Cruzain was assayed by the use of fluorogenic coumarin-based substrate Z-FR-AMC: proteolytic cleavage releases AMC, whose fluorescence is measured at 360 nm excitation and 450 nm emission. Purified cruzain was supplied by the labs of Prof. James McKerrow and Brian Shoichet, UC San Francisco.
This assay had 0.01% Triton X-100 concentration. See also releated assay "qHTS Assay for Promiscuous and Specific Inhibitors of Cruzain (without detergent)" with 0.00005% Triton X-100.
See following references for additional details:
Assay Provider: Shoichet, Brian; University of California, San Fancisco
Screening Center PI: Austin, C.P.
Screening Center: NIH Chemical Genomics Center [NCGC]
Buffer: 100 mM Sodium Acetate, pH 5.5, 5 mM DTT, Triton X-100 concentration: 0.01%.
Buffer in columns 3 and 4 as negative control (no enzyme).
Substrate solution: 2 uM final concentration of Z-FR-AMC (catalog number I-1160, Bachem) dispensed throughout the plate.
Enzyme: 1.5 nM Cruzain final concentration in columns 1, 2, 5-48. Column 1 is neutral (100% activity). Column 2 contained titration of covalent inhibitor K11777, starting concentration 1 mM, then 1:2 dilution in duplicate).
Three uL of enzyme or buffer were dispensed to 1536-well Greiner black solid bottom plates. Compounds and controls (23 nL) were transferred via Kalypsys PinTool. The plates were incubated for 15 min at room temperature, and then 1 uL of substrate solution was added to start the reaction. The plates were immediately transferred to and read 4 times every 30 seconds for 2 min on ViewLux High-throughput CCD imager (Perkin-Elmer) using 360 nm excitation and 450 nm emission fluorescence protocol. The fluorescence intensity difference between the third and the first time points (time lapse of 60 seconds) was used to compute reaction progress.
In the case of COCCn1c(SCC(=O)c2cc(C)ccc2C)nc2cc(C(=O)NC3CCCC3)ccc2c1=O, the max response, negative = inhibition is reported as inactive: -0.0872%.
Cc1cc(C)c(OCCN2C(=O)NC(C)(C)C2=O)c(Cl)c1 was tested, and the max response, negative = inhibition was inactive: -2.04%.
For Cc1ccc(S(=O)(=O)NC(C(=O)Oc2ccc3c(C(F)(F)F)cc(=O)oc3c2)c2ccccc2)cc1 (stereo unspecified), the Potency was inconclusive: 31.6 µM [inhibitor, single point].
For CC(=O)Oc1oc(-c2ccccc2)nc1/C=N/c1ccccn1, the Potency was active: 14.1 µM.
In the case of O=C(N/N=C/c1cc([N+](=O)[O-])ccc1Cl)c1ccc2nc[nH]c2c1, the Potency is reported as inconclusive: 25.1 µM [inhibitor, single point].
With CSc1nnc2c3cc(C)ccc3n(Cc3ccccc3)c2n1 the Potency was inconclusive: 14.1 µM [inhibitor, partial curve].
With Cc1ccc2nc3c(cc(C(=O)NCCCn4ccnc4)n3C)c(=O)n2c1 the Potency was inconclusive: 31.6 µM [inhibitor, single point].
In the case of CCOc1ccc(-n2c(=S)sc3c(=O)[nH]c(SCC(=O)N4CCC(C)CC4)nc32)cc1, the Potency is reported as inconclusive: 31.6 µM [inhibitor, single point].
For Cc1ccc2c(c1)c(N=NC(N)=S)c(O)n2Cc1ccccc1, the Potency was inconclusive: 0.562 µM [inhibitor, full curve].
With CSc1ccc(Cl)c(C(=O)NCc2ccco2)c1 the Potency was inconclusive: 22.4 µM [inhibitor, single point].
With C=CCn1c(=N)c(C(=O)NCCCOC)cc2c(=O)n3cccc(C)c3nc21 the Potency was active: 31.6 µM.
O=C(N/N=C/c1ccc(F)c(F)c1)c1cc2c(s1)-c1ccccc1CC2 was tested, and the Potency was inconclusive: 28.2 µM [inhibitor, single point].
COc1ccc(-c2ccc3c(N)c(C(=O)NCc4ccc(Cl)cc4)sc3n2)cc1 was tested, and the Potency was inconclusive: 15.8 µM [inhibitor, partial curve].
In the case of O=C1CN(C(=O)Cc2ccc(F)cc2)C(c2ccccc2)c2cc(Cl)ccc2N1 (stereo unspecified), the max response, negative = inhibition is reported as inactive: -6.17%.
In the case of Cc1cccc(-n2c(N)cc(=O)nc2SCC(=O)Nc2nnc(C)s2)c1, the Potency is reported as inconclusive: 35.5 µM [inhibitor, single point].
With CCOC(=O)COc1ccc(C)cc1-c1ccno1 the Potency was inconclusive: 28.2 µM [inhibitor, single point].
With Cc1cccc(C)c1OCC(=O)N=Nc1c(O)[nH]c2ccc(Br)cc12 the max response, negative = inhibition was inactive: 1.57%.
For COP(=O)(OC)c1nc(-c2cccc3ccccc23)oc1NCCc1ccccc1, the Potency was active: 25.1 µM.
In the case of COc1ccc(OCC(=O)N2CCN(C(=O)c3ccc(OC)c(OC)c3)CC2)cc1, the Potency is reported as inconclusive: 35.5 µM [inhibitor, single point].
In the case of O=C(/C=C/c1ccncc1)c1ccc(NC(=O)c2ccccc2F)cc1, the Potency is reported as inconclusive: 31.6 µM [inhibitor, single point].
In the case of N#Cc1cc(-c2ccccc2)nc(Oc2ccc(Cl)cc2)n1, the Potency is reported as inconclusive: 17.8 µM [inhibitor, partial curve].
For O=C(N/N=C/c1ccc(Br)cc1)c1ccc(Br)o1, the Potency was inconclusive: 31.6 µM [inhibitor, single point].
C[C@H](CO)NC(=O)[C@H]1C[C@@H]1[C@H](NP(=O)(c1ccccc1)c1ccccc1)c1ccccc1 was tested, and the max response, negative = inhibition was inactive: 1.08%.
In the case of CCCNC(=O)c1ccc(C2SCC(=O)N2CCc2ccccc2)cc1 (stereo unspecified), the Potency is reported as inconclusive: 15.8 µM [inhibitor, partial curve].
In the case of CSCCC(NC(=O)OC(C)(C)C)C(=O)Oc1ccc2c(=O)c(-c3ccc4c(c3)OCCO4)coc2c1 (stereo unspecified), the Potency is reported as inconclusive: 7.94 µM [inhibitor, full curve, poor fit].
Clc1ccc2[nH]c3c(NCCCN4CCOCC4)ncnc3c2c1 was tested, and the Potency was active: 15.8 µM.
CCOc1cc(/C=C2\C(=O)N(c3nc(-c4ccc(Br)cc4)cs3)N=C2c2ccccc2)ccc1O was tested, and the Potency was inconclusive: 15.8 µM [inhibitor, partial curve].
In the case of C#CCOCCOCCOCCNc1nc(N2CCN(C(=O)[C@H]([C@@H](C)CC)n3cc(CCCN=C(N)N)nn3)CC2)nc(N2CCN(C(=O)[C@H](CCCCN)n3cc(CCCC)nn3)CC2)n1, the Potency is reported as active: 25.1 µM.
With CCOC(=O)C1C(=O)C=C(c2ccc(OC)cc2)CC1c1ccco1 (stereo unspecified) the Potency was inconclusive: 35.5 µM [inhibitor, single point].
CC(=O)N1c2ccccc2CC1C(=O)N1CCN(c2cc(Cl)ccc2C)CC1 (stereo unspecified) was tested, and the max response, negative = inhibition was inactive: -3.15%.
In the case of O=C(COC(=O)CNC(=O)c1cccc(F)c1)NCCC1=CCCCC1, the Potency is reported as active: 15.8 µM.
CCN(CC)c1ccc2cc(-c3nc(-c4ccccc4)no3)c(=O)oc2c1 was tested, and the max response, negative = inhibition was inactive: 1.05%.
For CCn1c(=N)c(C(=O)NCCCOC)cc2c(=O)n3cccc(C)c3nc21, the Potency was active: 31.6 µM.
Cc1sc(NC(=O)c2ccc(OCC(C)C)cc2)c(C(N)=O)c1-c1ccc(Cl)cc1Cl was tested, and the Potency was inconclusive: 31.6 µM [inhibitor, single point].
For C=CCNc1ncnc2c1[nH]c1ccc(Cl)cc12, the Potency was inconclusive: 15.8 µM [inhibitor, partial curve].
With Cc1ccccc1NC(=O)COC(=O)CNC(=O)c1sc2ccccc2c1Cl the Potency was active: 7.94 µM.
In the case of CN(C)CCNC(=O)/C(=C/c1ccc(-c2ccc(Cl)cc2Cl)o1)NC(=O)c1ccccc1, the Potency is reported as inconclusive: 28.2 µM [inhibitor, single point].
In the case of Cc1onc(-c2ccccc2)c1C(=O)Nc1nnc(N(C)Cc2ccccc2)s1, the max response, negative = inhibition is reported as inactive: -4.61%.
In the case of Cc1ccc2[nH]c(CSc3nnc(NC(=O)c4ccc(Cl)cc4)s3)cc(=O)c2c1, the max response, negative = inhibition is reported as inactive: 5.09%.
Fc1cccc(-c2cc3nc(-c4ccccc4)cc(N4CCC5(CC4)OCCO5)n3n2)c1 was tested, and the Potency was inconclusive: 20 µM [inhibitor, partial curve].
COCCn1c(=N)c(C(=O)NC(C)c2ccccc2)cc2c(=O)n3cc(C)ccc3nc21 (stereo unspecified) was tested, and the max response, negative = inhibition was inactive: 0.677%.
For COc1cc(NC(=O)CSc2ncc(S(=O)(=O)c3ccc(Br)cc3)c(=O)[nH]2)cc(OC)c1, the Potency was inconclusive: 20 µM [inhibitor, single point].
With O=S(=O)(Nc1c(S(=O)(=O)c2ccccc2)c2nc3ccccc3nc2n1C1CCCCC1)c1ccccc1 the Potency was inconclusive: 31.6 µM [inhibitor, single point].
For COc1ccc2[nH]c(=O)c(CN(Cc3nnnn3Cc3ccco3)C3CCCCC3)cc2c1, the Potency was active: 7.08 µM.
For CCOC(=O)c1cc(S(=O)(=O)N2CCN(c3ccccc3F)CC2)[nH]n1, the max response, negative = inhibition was inactive: -5.4%.
Brc1ccc(-c2ccc(/C=N/Nc3nc4ccccc4[nH]3)o2)cc1 was tested, and the Potency was inconclusive: 3.98 µM [inhibitor, full curve].
In the case of COc1ccc(S(=O)(=O)n2nc(OC(=O)c3ccco3)cc2N)cc1, the Potency is reported as active: 12.6 µM.
In the case of Cc1cccc2sc(N)nc12, the max response, negative = inhibition is reported as inactive: 7.71%.
With S=C1NCCc2ccc(Cl)cc2C1c1ccccc1 (stereo unspecified) the Potency was inconclusive: 1.58 µM [inhibitor, full curve, poor fit].
Oc1c(Cl)cc(Cl)c(Cl)c1Cc1c(O)c(Cl)cc(Cl)c1Cl was tested, and the Potency was active: 25.1 µM.
With Cc1cc(=O)oc2c3c4c(cc12)OCCN4CCC3 the Potency was inconclusive: 39.8 µM [inhibitor, single point].
In the case of O=C(NCc1ccccc1)c1ccc2nc(-c3ccco3)c(-c3ccco3)nc2c1, the Potency is reported as inconclusive: 15.8 µM [inhibitor, partial curve, poor fit].
For N=c1c(C(=O)NCc2ccc(F)cc2)cc2c(=O)n3ccccc3nc2n1Cc1cccnc1, the Potency was inconclusive: 35.5 µM [inhibitor, single point].
In the case of COc1ccc(CCNc2oc(-c3ccc(OC)c(OC)c3)nc2P(=O)(OC)OC)cc1OC, the Potency is reported as inconclusive: 28.2 µM [inhibitor, single point].
For CCCCCn1c(=O)[nH]c2cc(C(=O)NCc3ccc(OC)cc3)ccc2c1=O, the max response, negative = inhibition was inactive: 0.975%.
In the case of Cc1ccc(-c2nnc(-c3ccc(NC(=O)c4cccs4)cc3)o2)cc1, the Potency is reported as inconclusive: 31.6 µM [inhibitor, single point].
For COc1cc2c(cc1OC)C(C)N(C(=O)c1cc3c(s1)-c1ccccc1OC3)CC2 (stereo unspecified), the Potency was inconclusive: 35.5 µM [inhibitor, single point].
In the case of COc1cc(NS(=O)(=O)c2ccc(NC(=O)COc3ccccc3C)cc2)nc(OC)n1, the Potency is reported as inconclusive: 22.4 µM [inhibitor, single point].
In the case of Cc1ccc(S(=O)(=O)NCC(=O)OC(C(=O)c2ccccc2)c2ccccc2)cc1 (stereo unspecified), the Potency is reported as inconclusive: 31.6 µM [inhibitor, single point].
For Cc1nc2nc(SCC(=O)NCc3ccccc3)nn2c(C)c1Cc1ccccc1Cl, the max response, negative = inhibition was inactive: -6.77%.
With O=C(O)c1cc2c(s1)-c1ccccc1OC2 the Potency was inconclusive: 28.2 µM [inhibitor, single point].
With COc1ccc(N2CCN(C(=O)Cc3noc4ccc(C)cc34)CC2)cc1 the Potency was inconclusive: 28.2 µM [inhibitor, single point].
CC(C)C(NC(=O)c1ccco1)C(=O)NCC(c1ccco1)N(C)C (stereo unspecified) was tested, and the Potency was inconclusive: 28.2 µM [inhibitor, single point].
Cn1c(C(=O)N2CCCC(C(=O)NCCCSC3CCCCC3)C2)cc2sccc21 (stereo unspecified) was tested, and the Potency was inconclusive: 20 µM [inhibitor, single point].
With CCOC(=O)C1C(=O)C=C(c2ccc(Br)cc2)CC1c1ccco1 (stereo unspecified) the Potency was inconclusive: 20 µM [inhibitor, single point].
In the case of CS/C(=N\S(=O)(=O)c1cccs1)NC(=O)CSc1nc2ccccc2s1, the Potency is reported as inconclusive: 28.2 µM [inhibitor, single point].
